According to the antibiotic and cytotoxicity screens of Wong et al. (2023):
Some of the results follow.

Legend:
HSkMC = human skeletal muscle cells; assay: cytotoxicity call (relative viability < 0.9); settings: 10 µM
HepG2 = assay: cytotoxicity call (relative viability < 0.9); settings: 10 µM
S. aureus RN4220 = assay: growth inhibition call (relative growth <= 0.2); settings: 50 µM

O=C(NCC[C@H]1CC[C@H](NS(=O)(=O)c2cccc(F)c2)[C@@H](CO)O1)C1CC1
inactive: cytotoxicity call (HSkMC) | cytotoxicity call (HepG2) | growth inhibition call (S. aureus RN4220)

COc1ccccc1NC(=O)N(C)C[C@@H]1OCc2ccccc2-c2c(n(C)c3ccccc23)C(=O)N([C@@H](C)CO)C[C@H]1C
inactive: cytotoxicity call (HSkMC) | cytotoxicity call (HepG2) | growth inhibition call (S. aureus RN4220)

Cc1nccn1CCc1nc(N)nc(N)n1
inactive: cytotoxicity call (HSkMC) | cytotoxicity call (HepG2) | growth inhibition call (S. aureus RN4220)

COc1ccc(CN(C)C[C@@H]2OCCCC[C@@H](C)Oc3ccc(NC(=O)C4CCCCC4)cc3C(=O)N([C@H](C)CO)C[C@@H]2C)cc1
inactive: cytotoxicity call (HSkMC) | cytotoxicity call (HepG2) | growth inhibition call (S. aureus RN4220)
